T1: insulin degrading enzyme (IDE) (Rattus norvegicus, UniProt P35559)
T1 construct: purchased Merck 407241-50UG
T1 sequence (P35559 1-1019): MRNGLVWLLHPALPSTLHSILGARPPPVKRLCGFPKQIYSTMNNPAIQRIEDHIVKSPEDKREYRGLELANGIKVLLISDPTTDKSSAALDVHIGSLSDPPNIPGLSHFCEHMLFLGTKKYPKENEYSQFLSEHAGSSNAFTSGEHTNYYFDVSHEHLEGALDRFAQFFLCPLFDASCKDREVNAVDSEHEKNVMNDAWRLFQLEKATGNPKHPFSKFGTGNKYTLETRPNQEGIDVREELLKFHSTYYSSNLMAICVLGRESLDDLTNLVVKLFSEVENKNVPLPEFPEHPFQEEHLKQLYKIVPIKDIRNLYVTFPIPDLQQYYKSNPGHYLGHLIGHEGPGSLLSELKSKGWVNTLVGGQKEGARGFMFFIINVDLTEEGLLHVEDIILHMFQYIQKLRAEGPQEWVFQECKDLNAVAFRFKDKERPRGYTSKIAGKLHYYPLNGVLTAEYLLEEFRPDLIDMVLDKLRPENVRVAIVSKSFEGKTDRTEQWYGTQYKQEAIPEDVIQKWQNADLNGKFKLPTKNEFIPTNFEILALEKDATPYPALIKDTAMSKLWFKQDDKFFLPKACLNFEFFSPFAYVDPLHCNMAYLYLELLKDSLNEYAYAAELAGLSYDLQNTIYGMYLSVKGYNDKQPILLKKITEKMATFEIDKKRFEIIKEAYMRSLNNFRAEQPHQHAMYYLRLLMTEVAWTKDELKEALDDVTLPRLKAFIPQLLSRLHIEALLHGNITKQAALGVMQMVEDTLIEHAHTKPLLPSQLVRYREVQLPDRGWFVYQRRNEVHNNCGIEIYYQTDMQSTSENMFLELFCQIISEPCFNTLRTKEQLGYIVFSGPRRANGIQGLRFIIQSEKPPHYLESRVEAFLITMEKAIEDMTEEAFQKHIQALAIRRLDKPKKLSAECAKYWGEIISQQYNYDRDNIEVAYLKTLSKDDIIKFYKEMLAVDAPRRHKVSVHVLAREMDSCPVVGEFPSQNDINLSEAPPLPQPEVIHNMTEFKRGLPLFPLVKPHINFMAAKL


Key:
[1] = Pharmacokinetics after intravenous administration in rat (anti-human IgG ELISA, non-compartmental analysis); type: in vivo; conditions: intravenous 5 mg/kg
Experimental: Determination of in vivo Pharmacokinetic Parameters Pharmacokinetic parameters of TPP-10992 (SEQ ID NO 76 and SEQ ID NO 66) and TPP-5661 (SEQ ID NO 67 and SEQ ID NO 66) were determined after intravenous administration of 5 mg/kg to male Wistar rats (n=3). TPP-10992 and TPP-5661 were given as a bolus injection via the tail vein. Blood samples were collected from the jugular vein via previously implanted catheters in time intervals up to 14 days (336 hours). Generated EDTA-plasma was stored at −20° C. until further analysis.
The quantification of TPP-10992 and TPP-5661 in plasma samples was performed employing an anti-human IgG ELISA (enzyme-linked immunosorbent assay) format. Pharmacokinetic parameters were calculated from plasma concentration time profiles using non-compartmental data analysis.

[2] = biological target: T2, neutral endopeptidase (NEP) (Homo sapiens, UniProt P08473); test: Sensitivity towards proteolytic degradation by NEP (activity on receptor cell line after incubation); type: in vitro ADME; conditions: 4 hours, 37° C., 0.6 μg/ml NEP
T2 construct: purchased R&D Systems 1182-ZNC

[3] = biological target: T1, insulin degrading enzyme (IDE); test: Sensitivity towards proteolytic degradation by IDE (activity on receptor cell line after incubation); type: in vitro ADME; conditions: 4 hours, 37° C., 0.6 μg/ml IDE
[4] = system: PE-contracted aortic rings; test: Vasorelaxation of isolated rat aortic rings contracted by phenylephrine
Experimental: All experiments were conducted in accordance with institutional guidelines and approved by the local committee on animal experiments. Male Sprague-Dawley rats (weighing 250-300 g) were anesthetized with pentobarbital sodium (40 mg/kg i.p.), killed by decapitation, and exsanguinated. The thoracic aorta was excised and placed in ice-cold Krebs buffer of the following composition: 130 mM NaCl, 14.9 mM NaHCO3, 5.5 mM dextrose, 4.7 mM KCl, 1.18 mM KH2PO4, 1.17 mM MgSO47H2O, and 1.6 mM CaCl22H2O. The vessel was pinned in a Sylgard Petri dish filled with chilled Krebs' solution, cleaned of fat and connective tissue, and cut into ring segments of approximately 3 to 4 mm in length. […] Changes in isometric force were recorded using a PowerLab data acquisition system (software Lab Chart 7.0)
After the equilibration period, aortic rings were challenged with 80 mM KCl to check tissue viability. Next, the endothelial integrity of the preparations was determined by verifying the responsiveness to acetylcholine (ACh, 1 μM) in vessels pre-contracted with Phenylephrine (PE, 1 μM). After wash-out and a period of equilibration, Phenylephrine (PE, 1 μM) was used to induce contraction, thereafter natriuretic peptides and natriuretic peptide engrafted IgGs were evaluated for vasorelaxation.

[5] = system: spontaneously hypertensive rats; test: Blood pressure by radiotelemetry in conscious spontaneously hypertensive rats; type: in vivo, rat; conditions: intraperitoneal, 30 mg/kg
Experimental: Female spontaneously hypertensive rats (SHR/N Crl BR, Charles River) with a body weight of 210-300 g were used for these studies. All animals were housed in individual cages at 22-24° C. ambient temperature and maintained on a 12-hour light/dark cycle with free access to standard laboratory rat chow and water ad libitum. Telemeter (HD-10, DSI) implantation was performed a minimum of 14 days before animals were used for blood pressure measurements. Surgery was performed under aseptic conditions. After shaving the abdominal wall, a midline abdominal incision was made, and the fluid-filled sensor catheter was inserted upstream into the exposed descending aorta between the iliac bifurcation and the renal arteries. According to the DSI guidelines the tip of the telemetric catheter was located caudal to the renal arteries and secured by tissue adhesive. The transmitter body was affixed to the inner peritoneal wall before closure of the abdomen. For postsurgical protection against infections and pain a single dosage of an antibiotic (Oxytetracyclin® 10%, 60 mg/kg s.c., 0.06 ml/100 g body weight, Beta-Pharma GmbH & Co, Germany) and analgesic were injected (Rimadyl®, 4 mg/kg s.c., Pfizer, Germany). Telemetric data acquisition was performed by DSI software was predefined to sample hemodynamic data for 10 seconds repeated every 5 minutes. Data collection was started at least 2 hours before drug administration and finished after completion of measurement cycles. Data are expressed as % of basal values±SEM of at least 4 animals per group. The basal value for each animal was calculated as the average of the values measured in two hours prior to substance application (7:00-9:00 AM). Data are then expressed as averages every half hour, starting 15 minutes post application. All animals were treated with a single intraperitoneal (ip) application of test substances dissolved in phosphate buffered saline (PBS). Drug administration took place at 9:00 AM (0 hours).

healthy beagle dogs = test: Hemodynamics in conscious telemetered beagle dogs; type: in vivo, dog
Experimental: The effects of TPP-10992 on cardiovascular and ECG parameters after single subcutaneous administration were assessed in a primary pharmacodynamic study in conscious telemetered beagle dogs.
Telemetry devices (DSI™, USA) were surgically implanted to measure blood pressure as well as heart rate, followed by a recovery period to allow wound closure. On the day of the study, telemetry sensors were activated for continuous hemodynamic measurements. The transmitted signals were collected by telemetry receivers located in the animal facility. All collected data were processed by a data acquisition program and averaged over a predefined period of 12 h. As vehicle for TPP-10992 NaCl (0.9%) was used and doses of 0.1 mg/kg, 0.3 mg/kg and 1.0 mg/kg bodyweight were applied via subcutaneous injection.

[6] = Pharmacokinetics after intraperitoneal administration in mice (anti-human IgG ELISA); type: in vivo; conditions: intraperitoneal 5 mg/kg
Experimental: Pharmacokinetic parameters of TPP-12897 were determined after intraperitoneal administration to female Balb/c mice (n=3). Blood samples were collected from 15 minutes up to 72 hours post application. Generated EDTA-plasma was stored at −20° C. until further analysis. The quantification of TPP-12897 in plasma samples was performed by an anti-human IgG (Immunoglobulin G) ELISA format.
Pharmacokinetic parameters were calculated from plasma concentration time profiles using non-compartmental data analysis.

T2 sequence (P08473 whole entry): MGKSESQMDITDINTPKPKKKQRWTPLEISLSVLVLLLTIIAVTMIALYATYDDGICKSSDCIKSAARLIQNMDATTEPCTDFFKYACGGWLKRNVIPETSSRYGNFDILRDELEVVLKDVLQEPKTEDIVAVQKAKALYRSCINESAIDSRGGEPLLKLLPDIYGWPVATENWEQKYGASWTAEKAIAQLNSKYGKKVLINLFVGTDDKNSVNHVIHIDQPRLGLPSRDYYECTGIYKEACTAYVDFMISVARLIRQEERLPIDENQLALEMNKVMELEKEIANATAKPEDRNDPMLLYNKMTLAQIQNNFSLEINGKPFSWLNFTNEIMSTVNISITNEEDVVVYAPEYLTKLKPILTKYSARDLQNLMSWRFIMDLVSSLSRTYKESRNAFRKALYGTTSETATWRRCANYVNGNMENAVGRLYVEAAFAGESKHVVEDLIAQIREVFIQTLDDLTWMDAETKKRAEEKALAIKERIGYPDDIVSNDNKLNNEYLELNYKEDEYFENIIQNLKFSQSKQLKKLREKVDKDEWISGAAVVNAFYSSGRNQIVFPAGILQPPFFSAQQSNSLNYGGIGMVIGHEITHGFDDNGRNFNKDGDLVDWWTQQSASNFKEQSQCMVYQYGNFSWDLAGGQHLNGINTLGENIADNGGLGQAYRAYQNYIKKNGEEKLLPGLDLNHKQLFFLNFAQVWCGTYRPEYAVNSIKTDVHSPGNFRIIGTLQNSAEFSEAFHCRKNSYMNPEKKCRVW

| Molecule | Mean clearance (CL) [1] [mL/day/kg] | terminal half-life (t1/2) [1] [h] | sensitivity/resistance to proteolytic degradation by NEP [2] | sensitivity/resistance to proteolytic degradation by IDE [3] | vasodilation in PE-contracted aortic rings [4] | Potency (log EC50 values), vasodilation ([4]; endothelium-intact rat aortic rings contracted by phenylephrine (1 μM)) | duration of effect on MAP [5] | reduction in mean arterial blood pressure (MAP) [5] | time of maximum effect on MAP post application [5] [h] | reduction in blood pressure (healthy beagle dogs; healthy dogs, 0.1, 0.3 and 1.0 mg/kg s.c., significant at 1.0 mg/kg) | effects on heart rate (healthy beagle dogs; healthy dogs, 0.1-1.0 mg/kg s.c.) | duration of reduction in blood pressure (healthy beagle dogs; healthy dogs, single subcutaneous administration) [days] | Mean area under the curve (AUC) [6] [µg·h/mL] | terminal half-life (t1/2) [6] [h] |
| --- | --- | --- | --- | --- | --- | --- | --- | --- | --- | --- | --- | --- | --- | --- |
| TPP-10992: ANP engrafted antibody, IgG4 isotype of compound 9; SEQ ID NO 76 and SEQ ID NO 66 (antibody, listed as Homo sapiens, NP engrafted HC) heavy: EVQLLESGGGLVQPGGSLRLSCAASGFTFGSGSGSGSGSGSPDGGSGGSLRRSSCFGGRMDRIGAQSGLGCNSFRYGSYGSGSGSGSGSGMSWVRQAPGKGLEWVSAISGSGGSTYYADSVKGRFTISRDNSKNTLYLQMNSLRAEDTAVYYCAKLTGAEYFQHWGQGTLVTVSSASTKGPSVFPLAPCSRSTSESTAALGCLVKDYFPEPVTVSWNSGALTSGVHTFPAVLQSSGLYSLSSVVTVPSSSLGTKTYTCNVDHKPSNTKVDKRV[letters of human IgG4 Fc with S228P (EU numbers) left out] light: QSVLTQPPSVSGAPGQRVTISCTGSSSNIGAGYDVHWYQQLPGTAPKLLIYGNSNRPSGVPDRFSGSKSGTSASLAITGLQAEDEADYYCQSYDSSLSGVVFGGGTKLTVLGQPKAAPSVTLFPPSSEELQANKATLVCLISDFYPGAVTVAWKADSSPVKAGVETTTPSKQSNNKYAASSYLSLTPEQWKSHRSYSCQVTHEGSTVEKTVAPTECS | 6.48 | 184 | high resistance | high resistance | dose-dependent vasodilation | −6.7 | greater than 6 days | approximately 20% | 48 | dose-dependent and long-lasting | No effects | > 5 | – | – |
| TPP-12897: CNP engrafted antibody; heavy chain SEQ ID NO 445, light chain SEQ ID NO 447 (antibody, listed as Homo sapiens, NP engrafted HC) heavy: EVQLLESGGGLVQPGGSLRLSCAASGFTFSSYAMSWVRQAPGKGLEWVSAISGSGGSTYYADSVKGRFTISRDNSKNTLYLQMNSLRAEDTAVYYCTSVHQETKKYQSSPYKGANKKGLSKGCFGLKLDRIGSMSGLGCGSGGSGSYSYTYNYEWHVDVWGQGTLVTVSS[letters of human IgG1 constant region left out] light: QSVLTQPPSVSGAPGQRVTISCTGSSSNIGAGYDVHWYQQLPGTAPKLLIYGNSNRPSGVPDRFSGSKSGTSASLAITGLQAEDEADYYCQSYDSSLDGVVFGGGTKLTVLGQPKAAPSVTLFPPSSEELQANKATLVCLISDFYPGAVTVAWKADSSPVKAGVETTTPSKQSNNKYAASSYLSLTPEQWKSHRSYSCQVTHEGSTVEKTVAPTECS | – | – | high resistance | high resistance | – | – | – | – | – | – | – | – | 7705 | 194 |
